Laboratory results as given in PubChem BioAssay AID493005 (National Center for Advancing Translational Sciences (NCATS), 2010).
Screen size: about 340,000 compounds; fewer than 10 were called active. This list was built around the results that the source calls inconclusive (neither active nor inactive); the mix of calls is not that of the screen. The call rests on the fitted dose curve; in most records, active means well fitted inhibition curve with a large enough effect in the main read-out, with a control signal flat (not every such curve was filed as active); inconclusive means small, poorly fitted or top-dose-only effect, or effect the other way, or a change in a side signal; inactive means no such curve, though single readings can be large or run the other way. Potencies beside an inconclusive call are fits to weak or partial responses and may not hold up. A note “side channel” means that the fit belongs to a control or component signal, not to the main read-out.
Potency means the concentration at half of the fitted maximal effect; tags describe the fitted curve by direction and shape or compound fluorescence and quenching.
Wherever activity change, negative = inhibition is given: % of control where 0% means no effect.

The compounds below were run against Tumor susceptibility gene 101 protein (Homo sapiens) (UniProt Q99816) (assay: qHTS Assay for Iinhibitors of HIV-1 Budding by Blocking the Interaction of PTAP/TSG101). Conditions: Fluorescence polarization, FITC-PTAP peptide / Tsg101 binding; activity change, negative = inhibition: at 115 µM (top of the series).
UniProt Q99816, sequence (Q99816 whole entry, looked up, the tested form may be a part): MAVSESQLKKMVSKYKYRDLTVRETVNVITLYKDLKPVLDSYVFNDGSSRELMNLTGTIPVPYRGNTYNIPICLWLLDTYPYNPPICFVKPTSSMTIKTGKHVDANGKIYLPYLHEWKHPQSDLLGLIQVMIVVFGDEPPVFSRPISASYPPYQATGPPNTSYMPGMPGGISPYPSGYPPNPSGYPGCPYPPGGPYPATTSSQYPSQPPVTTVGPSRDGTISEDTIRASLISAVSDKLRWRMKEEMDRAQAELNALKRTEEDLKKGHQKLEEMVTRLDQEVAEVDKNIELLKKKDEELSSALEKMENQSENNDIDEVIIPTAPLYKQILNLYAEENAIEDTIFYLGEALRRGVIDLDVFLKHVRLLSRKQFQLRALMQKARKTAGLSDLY
In short: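 Steps: Tsg101 binding domain dispensed (10 uM final), compounds pinned in DMSO, FITC-labeled PTAP-motif peptide added (50 nM final); after 20 min binding at room temperature, polarization measured.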
For `Cc1cccc(Nc2nc3c(s2)CCCC3)c1`, the Potency was “inactive”. `CC1=Nc2ccccc2/C1=C\c1nc(-c2ccc(F)cc2)oc1O` was tested, and the Potency was inconclusive: 56.2 µM [fluorescent, side channel, partial curve, poor fit]. With `CCN(CC)S(=O)(=O)c1cccc(-c2nnc(SCCCC(=O)c3ccccc3)o2)c1` the Potency was “inactive”. With `O=C(CSCc1ccccc1)N1CCN(c2ccccc2)CC1` the Potency was “inactive”. For `CCC(/C=C1\Sc2ccc(OC)cc2N1CC)=C\c1sc2ccc(OC)cc2[n+]1CCCS(=O)(=O)[O-]`, the Potency was inconclusive: 50.1 µM [quencher, side channel, partial curve, poor fit]. `CCCNC(=O)Cn1c(=O)/c(=C/c2ccc(-c3ccc([N+](=O)[O-])cc3)o2)s/c1=C\C(=O)C(C)(C)C` was tested, and the Potency was inconclusive: 35.5 µM [fluorescent, side channel, partial curve, poor fit]. With `COc1cccc2c1C(=O)c1c(O)c3c(c(O)c1C2=O)CC(O)(C(C)=O)CC3OC1CC(O)C(O)C(C)O1` (stereo unspecified) the Potency was inconclusive: 50.1 µM [fluorescent, side channel, partial curve, poor fit]. For `CCCN1C(=O)S/C(=C\c2ccc(N3CCOCC3)o2)C1=O`, the Potency was inconclusive: 50.1 µM [fluorescent, side channel, partial curve, poor fit]. `Cn1nc(C(F)(F)F)cc1-c1ccc(/C=C(\C#N)C(=O)c2cccc(C(F)(F)F)c2)s1` was tested, and the Potency was inconclusive: 56.2 µM [fluorescent, side channel, partial curve, poor fit]. With `O=C(O)C1CCCCC1C(=O)NC1C2CC3CC(C2)CC1C3` (stereo unspecified) the Potency was “inactive”. For `Cc1c(NC(=O)/C(C#N)=C/c2ccc(-c3cccc(Cl)c3)o2)c(=O)n(-c2ccccc2)n1C`, the Potency was inconclusive: 44.7 µM [falling, partial curve]. For `Cc1noc(/C=C/c2ccc(-c3ccccc3Cl)o2)c1[N+](=O)[O-]`, the Potency was inconclusive: 56.2 µM [fluorescent, side channel, partial curve, poor fit]. With `O=C(Cc1cccs1)Nc1cccc(-c2nnc(-c3ccco3)o2)c1` the Potency was “inactive”. In the case of `CCN1C(=O)c2cccc3c(NC(=O)c4ccc5c(c4)OCCO5)ccc1c23`, the Potency is reported as inconclusive: 50.1 µM [fluorescent, partial curve, poor fit]. For `COc1ccc(N/C=C/C(=O)c2sc(-c3ccccc3)nc2C)cc1`, the Potency was inconclusive: 89.1 µM [fluorescent, side channel, single point]. With `CSCC[C@H](NC(=O)[C@H](Cc1ccccc1)n1c(=O)[nH]c2ccccc2c1=O)C(=O)N1CCC[C@@H]1C(=O)O` the Potency was “inactive”. `CNc1ccc2c3c(cccc13)C(=O)N(C)C2=O` was tested, and the Potency was inconclusive: 20 µM [fluorescent, side channel, full curve, poor fit]. With `Cc1ccc(C(=O)O)cc1-c1ccc(/C=C2\SC(=O)N(CC(=O)Nc3ccc4c(c3)OCO4)C2=O)o1` the Potency was inconclusive: 79.4 µM [fluorescent, side channel, partial curve, poor fit]. For `CC1(C)Cc2nc3sc4c(=O)n(Cc5ccccc5)cnc4c3cc2CS1`, the Potency was “inactive”. `CCCN1C(=O)/C(=C/c2ccc(N3CCOCC3)cc2)NC1=S` was tested, and the Potency was inconclusive: 39.8 µM [fluorescent, side channel, partial curve]. `Cc1ccc(C)c(N2CCN(C(=O)c3ccc(CS(=O)(=O)c4ccccc4C)o3)CC2)c1` was tested, and the Potency was “inactive”. With `CC(C)(C)c1cc(NC(=O)c2cccc(S(=O)(=O)N3CCOCC3)c2)no1` the Potency was “inactive”. `CSc1ccccc1OC1CCN(Cc2ccccc2)CC1` was tested, and the Potency was “inactive”. For `COc1ccccc1NC(=O)COc1ccc(/C=N/NC(=O)CSCc2ccc(Cl)cc2)cc1`, the Potency was “inactive”. `COc1cccc(NC(=O)c2cc3ccccc3o/c2=N\O)c1` was tested, and the Potency was “inactive”. With `O=C(COc1ccccc1Br)Nc1ccc(S(=O)(=O)N2CCCC2)cc1` the Potency was “inactive”. With `CN(C)C1=C(Cl)C(=O)N(c2ccc(Cl)c(Cl)c2)C1=O` the Potency was inconclusive: 56.2 µM [fluorescent, side channel, partial curve, poor fit]. `Cc1ccc(NC(=O)CN2C(=O)N/C(=C/c3ccc(C)o3)C2=O)cc1` was tested, and the Potency was “inactive”. `CN(C)S(=O)(=O)c1cccc(NC(=O)c2cc3ccccc3o2)c1` was tested, and the Potency was “inactive”. With `CCN(CC)c1ccc2cc(NC(=O)CCC(=O)O)c(=O)oc2c1` the Potency was inconclusive: 50.1 µM [fluorescent, side channel, partial curve, poor fit]. `c1ccc(-c2cn3nc(-c4ccccc4)c(-c4ccccc4)nc3n2)cc1` was tested, and the Potency was inconclusive: 79.4 µM [fluorescent, side channel, partial curve, poor fit]. For `COc1ccc2c(c1)C(=O)N1[C@H]3c4cc(OC)ccc4OC[C@@H]3[C@H](c3ccccc3)[C@]1(C)C(=O)N2`, the Potency was “inactive”. With `COc1ccc(NC(=O)COc2ccc(/C=C/c3cccc[n+]3C)cc2OC)cc1` the Potency was “inactive”. In the case of `O=C(N/N=C\C=C\c1ccc([N+](=O)[O-])o1)c1cccs1`, the Potency is reported as inconclusive: 56.2 µM [fluorescent, side channel, partial curve, poor fit]. For `CN1C(=CC=C2C=C(I)C(=O)C(I)=C2)C(C)(C)c2ccccc21`, the Potency was inconclusive: 44.7 µM [fluorescent, side channel, partial curve, poor fit]. `COc1cc(/C=C/C(=O)CC(=O)/C=C/c2ccc(O)c(OC)c2)ccc1O` was tested, and the Potency was inconclusive: 20 µM [fluorescent, side channel, full curve]. In the case of `O=C1C(SCCO)=C(SCCO)C(=O)c2ccccc21`, the activity change, negative = inhibition is reported as inconclusive: -32.3% [phenotype inactive]. With `CC[n+]1c(/C=C/C=C/N(C(C)=O)c2ccccc2)sc2ccccc21` the Potency was inconclusive: 56.2 µM [fluorescent, side channel, partial curve, poor fit]. `CCCn1nc(NC(=O)CC(C)C)c2cc3ccccc3nc21` was tested, and the Potency was “inactive”. `CCCSc1nnc(NC(=O)c2sc3nc(-c4cccs4)ccc3c2N)s1` was tested, and the Potency was inconclusive: 31.6 µM [fluorescent, side channel, partial curve, poor fit]. With `CCOC(=O)/C=c1/s/c(=C/c2ccc3cc(OC)ccc3c2)c(=O)n1CC(=O)NCC1CCCO1` (stereo unspecified) the Potency was inconclusive: 56.2 µM [fluorescent, side channel, partial curve, poor fit]. In the case of `CCN1C(=O)c2cccc3c(N)ccc(c23)C1=O`, the Potency is reported as inconclusive: 50.1 µM [fluorescent, partial curve, poor fit]. For `CC(=O)N(Cc1c(C)nn(-c2ccccc2)c1Cl)c1ccc(Cl)cc1`, the Potency was “inactive”. In the case of `COc1ccccc1/C=C/C=N/NC(=O)CCn1cnc2ccccc21`, the Potency is reported as “inactive”. In the case of `CC(C)Cc1ccc(C(C)C(=O)OCC(=O)c2c[nH]c3ccccc23)cc1` (stereo unspecified), the Potency is reported as inconclusive: 44.7 µM [quencher, side channel, partial curve, poor fit]. In the case of `CCOC(=O)Nc1ccc(NCc2ccc(F)cc2)nc1N`, the Potency is reported as “inactive”. `COc1cccc(C=NNc2ccc([N+](=O)[O-])cn2)c1OC` was tested, and the Potency was “inactive”. `N=c1c2ccccc2nnn1-c1ccc(C(F)(F)F)cc1` was tested, and the Potency was inconclusive: 39.8 µM [quencher, side channel, partial curve, poor fit]. In the case of `O=c1c(-c2cc3ccccc3o2)[n+]([O-])c2ccccc2n1OCc1ccccn1`, the Potency is reported as inconclusive: 79.4 µM [fluorescent, side channel, partial curve]. For `O=C1c2cc(CO)cc(O)c2C(=O)c2c(O[C@@H]3OC(CO)[C@@H](O)[C@@H](O)[C@@H]3O)cccc21` (stereo partly specified), the Potency was “inactive”. `NC(=O)c1ccsc1NC(=O)COC(=O)CCOc1ccccc1` was tested, and the Potency was inconclusive: 56.2 µM [fluorescent, side channel, partial curve]. For `Brc1ccc2oc3c(N4CCOCC4)ncnc3c2c1`, the Potency was “inactive”. In the case of `COc1ccccc1N1N=C(C(=O)c2ccccc2)C2C(=O)N(c3ccc(Br)cc3)C(=O)C21` (stereo unspecified), the Potency is reported as inconclusive: 89.1 µM [fluorescent, side channel, single point]. `CC(C)CCNC(=O)c1onc(CSc2ccc(F)c(F)c2)c1C(=O)NCCC(C)C` was tested, and the Potency was inconclusive: 22.4 µM [quencher, side channel, partial curve, poor fit]. `OC(COc1ccc2cc(Br)ccc2c1)CN1CCCC1` (stereo unspecified) was tested, and the Potency was “inactive”. In the case of `CCOc1cc([N+](=O)[O-])cc2c1C(=O)Nc1ccccc1O2`, the Potency is reported as inconclusive: 50.1 µM [fluorescent, side channel, partial curve, poor fit]. In the case of `COc1ccc(CCn2c(NN=C(C)C)nc3c2c(=O)[nH]c(=O)n3C)cc1`, the Potency is reported as inconclusive: 25.1 µM [falling, full curve]. In the case of `Cc1csc(SCc2nnc(-c3ccccc3Br)o2)n1`, the Potency is reported as “inactive”. With `CC1=Nc2ccccc2/C1=C/c1sc(=S)n(-c2cccc(C(=O)O)c2)c1O` the Potency was inconclusive: 44.7 µM [fluorescent, side channel, partial curve, poor fit]. `Nc1c(C(=O)N/N=C/c2ccccc2Cl)oc2nc(-c3ccccc3)cc(-c3ccco3)c12` was tested, and the Potency was inconclusive: 44.7 µM [fluorescent, side channel, partial curve, poor fit]. For `N=C1/C(=C\c2coc3ccc(O)cc3c2=O)C(=O)N=C2SC=CN12`, the Potency was inconclusive: 56.2 µM [fluorescent, side channel, partial curve, poor fit].
